# Source: PubChem BioAssay AID686978 (National Center for Advancing Translational Sciences (NCATS), 2013)
# Among all 420,000 compounds or so, about 64,000 (15%) were called active. The inconclusive results got no clear call from the source; some entries with a clear call stand among them for comparison. Calls come from the whole dose curve; as a rule, active = well fitted inhibition curve with a large enough effect; inconclusive = small, poorly fitted or top-dose-only effect; inactive = flat fitted curve, though single readings scatter. Potencies of inconclusive entries are left out as doubtful fits.
# Assay: qHTS for Inhibitors of human tyrosyl-DNA phosphodiesterase 1 (TDP1): qHTS in cells in absence of CPT; note: nearly all actives have a fitted effect of over 55% in size
# Settings: DT40 Tdp1-/- hTDP1 cells, no CPT, ATP luminescence, 48 h; activity change, negative = growth inhibition: at 46.2 µM (top of the series)
# Procedure, shortened: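 Compound effects on proliferation are scored in DT40 Tdp1-/-;hTDP1 cells in the absence of CPT. ATP levels (CellTiter-Glo luminescence) are recorded after a ≥48 hr, 37 °C incubation.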
# % is set by controls: 0 for no effect and ±100 for the full control effect; potency is the fitted concentration of half-maximal effect; tags give direction and shape of the fitted curve.
SMILES,Potency,"activity change, negative = growth inhibition"
O=C(/C(=C/c1ccccc1Cl)c1ccccc1)N1CCOCC1,"inconclusive [inhibitor, single point]",–
CC(C)N1CC=C2C(C#N)=C(N)C(C#N)(C#N)C(c3ccccc3)C2C1 (stereo not drawn),active: 14.1 µM,–
Cc1ccc(NC(=O)CCCN2C(=O)COc3ccc(C)cc32)c(C)c1,active: 11.6 µM,–
Cc1c(N)c(=O)n(-c2ccccc2)n1C,inactive,–
O=C(Nc1ccc(N2CCCC2)c(Cl)c1)c1cccnc1,"inconclusive [inhibitor, single point]",–
CC(NC(=O)COC(=O)[C@@H]1CCCN1S(=O)(=O)c1ccccc1F)C12CC3CC(CC(C3)C1)C2 (stereo partly drawn),"inconclusive [inhibitor, single point]",–
CCCCN1C(=O)/C(=C2\SC(N3CCCCC3)=NC2=O)c2ccccc21,"inconclusive [inhibitor, single point]",–
Cc1ccc(-n2ncc3c(SCC(N)=O)ncnc32)cc1C,"inconclusive [inhibitor, single point]",–
O=C(OCc1ccc([N+](=O)[O-])cc1)c1cc([N+](=O)[O-])ccc1N1CCOCC1,active: 23.1 µM,–
O=C(NCc1ccc(F)cc1Cl)c1ccc(CSCc2ccccc2Cl)o1,"inconclusive [inhibitor, single point]",–
CCSc1nnc(CNC(=O)C23CC4CC(CC(C4)C2)C3)n1Cc1ccccc1,"inconclusive [inhibitor, single point]",–
CC(C)CCn1c(=O)c2sccc2n2c(CCCC(=O)Nc3ccc(F)c(Cl)c3)nnc12,"inconclusive [inhibitor, single point]",–
Cc1ccc(NC(=O)c2cc(-c3cccs3)nc3ccccc23)c(C)c1,"inconclusive [inhibitor, partial curve]",–
CCOC(=O)c1sc(NC(=O)C2CC2)cc1C,"inconclusive [inhibitor, single point]",–
Nc1ccccc1Sc1cc(Cl)nnc1Cl,"inconclusive [inhibitor, partial curve]",–
O=C(Nc1ccccc1-c1nc2ccccc2s1)c1ccco1,"inconclusive [inhibitor, single point]",–
O=C(NC(c1ccccc1)c1ccccc1)C1(c2cccs2)CCOCC1,"inconclusive [inhibitor, single point]",–
CC(C)Oc1ccc(CNC(=O)c2cnc3sc(N4CCCCCC4)nn3c2=O)cc1,–,inactive: -20.5%
CCOC(=O)c1nn(-c2ccccc2F)c2nc(Nc3ccccc3)cc(=O)n12,–,inactive: -26.7%
Cc1cccc(C2c3[nH]c4ccccc4c3CCN2C(=O)c2cc(CC(C)C)[nH]c(=O)n2)n1 (stereo not drawn),"inconclusive [inhibitor, single point]",–
COc1ccc(C(C)=O)cc1CSc1ccc(S(=O)(=O)N2CCOCC2)cn1,"inconclusive [inhibitor, single point]",–
O=[N+]([O-])c1cc(S(=O)(=O)Oc2ccccc2)ccc1Cl,active: 0.58 µM,–
CCCCNC(=O)C1(c2ccc(OC)cc2)CCOCC1,–,inactive: 5.04%
CCC(C)(C)NC(=O)CN(C(=O)c1csnn1)c1cccc2c1CCCC2,"inconclusive [inhibitor, single point]",–

SMILES,Potency,"activity change, negative = growth inhibition"
COc1ccc(CC(=O)OC(C)C(=O)c2ccc(C)cc2)cc1 (stereo not drawn),–,inactive: -0.639%
CCOC(=O)n1c(=O)n(Cc2ccc(Cl)cc2Cl)c2ccccc21,"inconclusive [inhibitor, partial curve, poor fit]",–
CCOc1ccc(N2CC(C(=O)Nc3nnc(C4CCCCC4)s3)CC2=O)cc1 (stereo not drawn),"inconclusive [inhibitor, partial curve]",–
COc1cccc(Nc2ncc3ncc(=O)n(C)c3n2)c1,–,inconclusive: -29.4% [inhibitor]
N#Cc1c(/N=C/C=C/c2ccccc2)sc2c1CCCC2,–,inactive: -14.2%
Cc1cc(C)n2nc(CNS(=O)(=O)c3ccc(F)cc3)nc2n1,"inconclusive [inhibitor, partial curve]",–
COCCNC(=O)C1(C)CCCN(C(=O)c2ccc(OC)cc2OC)C1 (stereo not drawn),–,inactive: -8.76%
Clc1nc(Nc2ccccc2)nc(Nc2ccccc2)n1,–,inactive: -20.7%
CCc1cccc(OCC(=O)Nc2cc(Cl)ccc2-n2cncn2)c1,–,inactive: -17.9%
Cc1ccc(CNC(=O)c2ccc(CSCc3c(F)cccc3Cl)o2)cc1,–,inactive: -14.3%
O=C(NCc1ccc(F)cc1F)Nc1cnccc1C(F)(F)F,"inconclusive [inhibitor, partial curve, poor fit]",–
CC(C)(C)C1CCC(C(=O)OCC(=O)N2CCOCC2)CC1 (stereo not drawn),–,inactive: -12.6%
CCC(C)(c1nnnn1-c1c(C)cccc1C)N(N=O)c1ccccc1Cl (stereo not drawn),"inconclusive [inhibitor, single point]",–
CN(CC(=O)Nc1ccc(Cl)cc1)Cc1cc(=O)n2ccsc2n1,–,inactive: 2.69%
COc1cccc(NC(=O)CN2C(=O)NC(c3ccccc3)(c3ccccc3)C2=O)c1,"inconclusive [inhibitor, single point]",–
CCn1c(C(=O)NCc2ccccc2)cc2sc(Cl)cc21,"inconclusive [inhibitor, single point]",–
COc1ccc(/C=C/C(=O)OCC(=O)NC2CCCC2)cc1,–,inactive: -24.1%
CCCNC(=O)c1ccccc1NC(=O)c1ccc(CSc2ccccc2)cc1,active: 20.6 µM,–
Cc1ccc(S(=O)(=O)/N=C(/c2ccc(F)cc2)N2CCCCC2)cc1,–,inactive: -2.83%
CCn1cnc2cc(NCc3ccccc3Cl)ccc21,"inconclusive [inhibitor, partial curve, poor fit]",–
CCOc1ccc(NC(=S)NS(=O)(=O)c2cc(Br)ccc2OCC)cc1,"inconclusive [inhibitor, single point]",–
CCCn1c(=O)c2c(c3ccccc31)OCC(=O)N2,–,inactive: -0.439%
O=C(N/N=C1\CCCc2ccccc21)c1ccc([N+](=O)[O-])cc1Cl,"inconclusive [inhibitor, single point]",–
Cc1cc(NC(=O)c2c(-c3c(F)cccc3Cl)noc2C)no1,–,inactive: -23.6%
